Reference: publication PMC6919601, “Identification of Plasmodium dipeptidyl aminopeptidase allosteric inhibitors by high throughput screening” (PLoS ONE, 2019)
Among all 110,000 compounds or so, about 230 (0.21%) showed an effect of 50% or more. This is one part of the list.

Target: DPAP1 (Plasmodium falciparum, UniProt Q8IIJ9)
Test: primary screen, percent inhibition; read by cleavage of a fluorogenic dipeptide substrate; higher = more effect of the substance
Parameters: species or system P. falciparum D10 trophozoite lysates; single well
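Further: 30 min substrate incubation versus DMSO and 10 µM JCP410 controls.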

Sequence of DPAP1 (Q8IIJ9 whole entry, looked up): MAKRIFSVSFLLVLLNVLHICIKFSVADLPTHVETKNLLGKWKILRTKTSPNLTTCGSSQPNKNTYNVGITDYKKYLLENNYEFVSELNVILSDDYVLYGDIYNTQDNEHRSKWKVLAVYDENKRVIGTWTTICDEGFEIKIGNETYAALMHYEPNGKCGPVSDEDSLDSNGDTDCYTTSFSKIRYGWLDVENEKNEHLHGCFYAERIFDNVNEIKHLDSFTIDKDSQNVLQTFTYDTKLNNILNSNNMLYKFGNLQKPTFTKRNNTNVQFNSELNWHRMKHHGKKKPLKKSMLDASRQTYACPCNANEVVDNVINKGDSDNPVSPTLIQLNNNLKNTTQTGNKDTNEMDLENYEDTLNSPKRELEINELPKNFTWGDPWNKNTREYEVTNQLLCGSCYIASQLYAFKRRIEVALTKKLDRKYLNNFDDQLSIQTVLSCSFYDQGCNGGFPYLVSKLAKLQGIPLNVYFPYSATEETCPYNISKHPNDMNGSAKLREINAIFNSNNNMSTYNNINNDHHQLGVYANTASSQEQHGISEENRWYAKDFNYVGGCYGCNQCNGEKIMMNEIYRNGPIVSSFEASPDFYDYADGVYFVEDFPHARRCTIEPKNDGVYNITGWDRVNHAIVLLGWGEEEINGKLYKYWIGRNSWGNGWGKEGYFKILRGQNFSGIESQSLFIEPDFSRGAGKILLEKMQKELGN

Compound | % Inhibition @ 10 uM
CCCCNC(=O)c1cc2ncc(Br)cn2n1 | -1.72%
CC(CCc1ccccc1)NC(=O)CCC(=O)O (stereo not shown) | -0.834%
COc1ccc(/C=C2\N=C(c3ccc(F)cc3)OC2=O)c(OC)c1OC | 1.64%
Cc1cc(O)c(NC(=O)c2ccccc2C)cc1C | 0.408%
CCCCCn1c(C(O)c2ccccc2)nc2ccccc21 (stereo not shown) | -2.92%
CCOc1ccc(-c2csc(Nc3ccc(Cl)cc3)n2)cc1[N+](=O)[O-] | -2.42%
CC(=O)C1(O)C(C)CC2C3CCC4CC(O)CCC4(C)C3=CCC21C (stereo not shown) | -5.23%
Cc1[nH]nc(Nc2ccccc2Br)c1[N+](=O)[O-] | -2.56%
COCc1cc(C)nc2sc3c(c12)NC(c1ccc(NC(C)=O)cc1)NC3=O (stereo not shown) | -5.6%
N#CCNC(=O)C(NC(=O)c1ccccc1)OCCc1ccccc1 (stereo not shown) | -5.43%
Cc1ccc(-c2cc(C(=O)O)c3ccccc3n2)c(C)c1 | -7.06%
CC(NC(=O)CCNS(=O)(=O)c1ccc2nc(O)ccc2c1)c1ccc2c(c1)OCCO2 (stereo not shown) | -2.26%
O=C(NCCc1ccccc1F)/C(=C/c1cccnc1)NC(=O)c1ccccc1 | 3.79%
CNC(=O)C(=O)Nc1ccc2c(c1)OCO2 | -4.3%
Cc1ccc(S(=O)(=O)N2CCCCC2)cc1C(=O)O | -5.59%
Cn1c(=O)c2c(nc(NCc3cccnc3)n2Cc2cccc(Br)c2)n(C)c1=O | -1.28%
Cn1c(=O)c2c(-c3ccccc3Cl)n(C(CO)(CO)CO)cc2n(C)c1=O | 0.366%
CC(=O)Nc1cccc(Nc2c3ccccc3nc3ccccc23)c1 | -0.661%
CCOc1cccc(C(=O)C2=C(O)C(=O)N(Cc3ccncc3)C2c2cccc(O)c2)c1 (stereo not shown) | 3.57%
COc1ccc(C2SCC(=O)N2c2ccccc2)cc1 (stereo not shown) | -3.79%
CSc1ccccc1NC(=O)c1ccc(Cn2nc(C)c(Br)c2C)o1 | 2.45%
CCCOCCOC(=O)C1=C(C)NC(=O)CC1c1ccccc1C(F)(F)F (stereo not shown) | 3.67%
O=C1c2ccccc2CC2c3[nH]c4ccccc4c3CCN12 (stereo not shown) | 3.8%
Cc1cc(NC(=O)c2cc3n(n2)C(C(F)(F)F)CC(c2ccco2)N3)n(-c2ccccc2)n1 (stereo not shown) | 2.46%
Cn1c(C(=O)N2CCC(C(=O)NCc3ccccc3Cl)CC2)cc2oc3ccccc3c21 | -7.02%

Compound | % Inhibition @ 10 uM
COc1ccc(-c2[nH]nc3c2C(c2cc4c(cc2Br)OCO4)C(C#N)=C(N)O3)cc1 (stereo not shown) | 0.446%
COc1cccc(CSc2nc3ccncc3n2CC(=O)NCC2CCCO2)c1 (stereo not shown) | -0.637%
COc1cccc(CN2CCC(N3CCC(C)CC3)CC2)c1OC | -1.52%
COc1ccc(Cn2nnc3c(O)nc(C4CCN(C(=O)c5cc(C)ccc5C)CC4)nc32)cc1 | 2.73%
Cc1cc(C(=O)NC(C)c2ccccc2)no1 (stereo not shown) | -6.45%
O=C(Nc1ccc(-c2ccc(NC(=O)c3ccco3)cc2)cc1)c1ccco1 | -1.36%
Cc1nc2ccn(Cc3cccs3)c(=O)c2cc1C(=O)NC1CCCC1 | 3.16%
O=C(NCc1cccs1)c1nc2ncccn2n1 | -5.65%
COc1cc(C)c(CN2CC3(C)CC2CC(C)(C)C3)cc1C (stereo not shown) | -12.1%
COc1cccc2sc(N(CCCN(C)C)C(=O)c3cccc(C(F)(F)F)c3)nc12 | -0.808%
O=C(O)C1=C(c2cc([N+](=O)[O-])ccc2O)N=S=N1 | 0.215%
CCC(C(=O)NCc1ccco1)n1nc(-c2ccc(OC)cc2)ccc1=O (stereo not shown) | -8.34%
Cc1oc(-c2ccc(Cl)cc2)nc1CS(=O)CC(=O)NCCCN(C)C1CCCCC1 (stereo not shown) | -4.71%
Cc1ccccc1NC(=O)c1c(Cl)c(C)nn1C | -6.34%
COc1ccc(C(Nc2cc(C)ccn2)c2ccc3cccnc3c2O)c(OC)c1OC (stereo not shown) | -4.51%
CC(C)OCCCNC(=O)c1ccc(CS(=O)Cc2ccc(Cl)cc2)o1 (stereo not shown) | 0.124%
C[C@H](C[C@H](NC(=O)c1ccc(-c2ccccc2Cl)cc1)C(=O)N[C@H](/C=C/S(=O)(=O)c1ccccc1)CCc1ccc(O)cc1)c1ccccc1 | -0.207%
C=CCOc1c(Br)cc(CNc2nccs2)cc1OC | 0.145%
Cc1ccc(Cl)cc1-c1ccc(/C=C2/NC(=O)NC2=O)o1 | 5.17%
O=C(N[C@@H](CCc1ccccc1)C(=O)c1nc2ccccc2o1)[C@H](CS(=O)(=O)Cc1ccccc1[N+](=O)[O-])NC(=O)N1CCOCC1 | -5.21%
CC(C)OC(=O)C(C)Nc1ccc(F)c(Cl)c1 (stereo not shown) | -1.77%
O=C1NC(c2ccccc2)Nc2c1sc(=S)n2-c1ccccc1 (stereo not shown) | 0.0538%
O=S(=O)(NCc1ccccc1)c1cccc(S(=O)(=O)c2ccc(Cl)c(Cl)c2)c1 | 6.31%
CC1=CC(C)(C)N(CC(=O)c2ccc([N+](=O)[O-])cc2)c2ccc(C)cc21 | -2.51%
CCN1C(=O)NC(c2ccccc2Cl)C(C(=O)OC2CCCCC2)=C1C (stereo not shown) | -2.6%

Compound | % Inhibition @ 10 uM
c1cnc(N2CCN(c3ncnc4c3nc3n4CCCCC3)CC2)nc1 | 1.51%
Cc1cccc(C(=O)N(Cc2ccco2)C2CCS(=O)(=O)C2)c1 (stereo not shown) | 0.569%
O=C(Nc1ccc(F)cc1F)c1cccc([N+](=O)[O-])c1 | -1.48%
Cc1c(C(=O)NC2CCCc3ccccc32)sc2nc3n(c(=O)c12)CCCCC3 (stereo not shown) | 5.82%
Cc1nnn(C23CC4CC(CC(C(=O)N5CCN(c6ccccn6)CC5)(C4)C2)C3)n1 | 1.49%
COc1ccc(/C=C(/NC(=O)c2ccccc2)C(=O)NCc2ccccc2)cc1 | -3.26%
COc1ccccc1N/C=C1/C(=O)NC(=O)N(c2ccccc2)C1=O | -1.22%
Cc1ccc(CN(C)Cc2ccccc2)o1 | 1.62%
O=c1c(CN2CCN(c3ccc(F)cc3)CC2)coc2ccc(Cl)cc12 | -1.42%
CCCOc1ccc(N2CC(C(=O)Nc3ccc(N4CCOCC4)cc3)CC2=O)cc1 (stereo not shown) | -5.35%
CCCCOc1ccc(C(=O)Nc2ccc(N3CCN(C(=O)c4ccco4)CC3)cc2)cc1 | -4.12%
COc1ccc(OC)c(C2CC(=O)N3C(=C2C#N)SCC3(O)c2ccc(OC)c(OC)c2)c1 (stereo not shown) | -1.74%
Cc1[nH]c(-c2ccc(F)cc2)cc1C(=O)NCCCN1CCN(C2CCCCC2)CC1 | -1.87%
O=C(NCCCn1ccnc1)C1CC(c2cccc(Br)c2)=NO1 (stereo not shown) | 1.91%
Cc1cc(-c2nc(-c3ccc(C(F)(F)F)cc3)no2)c2ccccc2n1 | 3.68%
COC(=O)c1ccc(C(=O)Nc2nc3c(s2)CCc2ccccc2-3)cc1 | 17.1%
CC1CCCN(C(=O)c2cc(-c3ccccc3)[nH]n2)C1 (stereo not shown) | 1.24%
C=CCSC1=C(C#N)C(c2ccccc2OC)CC(=O)N1 (stereo not shown) | -8.36%
CCOC(=O)c1c(NS(=O)(=O)c2ccc([N+](=O)[O-])cc2)sc2c1CCCC2 | -6.99%
CCC(=O)n1nc(-c2cccnc2)nc1NCc1ccc(OC)cc1 | -6.64%
O=C1C(=O)N(Cc2ccccc2Cl)c2ccccc21 | -0.366%
COCCN1C(=O)C(O)=C(C(=O)c2ccc(OC)cc2C)C1c1ccccc1 (stereo not shown) | 5.14%
COc1ccc(NC2=C(Cl)C(=O)N(c3ccccc3C)C2=O)cc1 | -4.6%
Cc1cccc(C)c1NC(=O)C1(NC(=O)CN2C(=O)c3ccccc3C2=O)CCCC1 | -4.02%
CC(=O)c1ccc(NC(=O)c2ccc(Cl)cc2)cc1 | -5.28%

Compound | % Inhibition @ 10 uM
Cc1ccc2nc(O)c(CN(C)C(=O)c3cccc(Cl)c3)cc2c1 | 5.7%
CCN1CCC(N2CCC(O)(c3ccc(Br)cc3)CC2)CC1 | 1.57%
O=C(CCc1ccccc1)ON=C1CCC(c2ccccc2)CC1 (stereo not shown) | 1.13%
CCOc1ccc(CCNC(=O)C2CCN(c3nn4c(=O)cc(C)nc4s3)CC2)cc1 | 3%
CC(C)C(=O)n1nc(-c2ccc(Cl)cc2)nc1NCc1ccco1 | 0.628%
Cc1cc(Cl)ccc1OCCSc1nc(-c2ccccc2)nc2cc(=O)[nH]n12 | -3.22%
Fc1ccccc1N1CCN(Cc2ccccc2Br)CC1 | -2.56%
Cc1csc2ncc(C(=O)NCc3cccs3)c(=O)n12 | -0.499%
N#CCNC(=O)C(CC1CCCCC1)C(=O)NCc1cccc2ccccc12 (stereo not shown) | -1.83%
Cc1noc(/C=C/N2CCOCC2)c1S(=O)(=O)N(C)CCc1ccc(Cl)cc1 | 10.3%
C[C@@H](O)[C@@H](NC(=O)OCc1ccccc1)C(=O)NCC#N | -3.14%
CCN(CC)c1ccc(NC(=O)c2ccccc2OC)cc1 | 38%
Cc1cc(/C=C2\C(=N)N3N=C(N4CCCC4)SC3=NC2=O)c(C)n1-c1ccc(F)cc1 | 4.88%
C=CCc1ccccc1OCC(O)CN1CCN(C(=O)OCC)CC1 (stereo not shown) | 7.75%
Cc1ccc(OCC(=O)Nc2nc(-c3ccc(F)cc3F)cs2)cc1 | 2.44%
O=c1oc2ccc([N+](=O)[O-])cc2c2nsnc12 | 3.01%
CCNC(=O)c1ccc(CSc2nc3ccncc3n2Cc2ccc(C)cc2)cc1 | 7.2%
C=CCNC(=O)C(=O)NC1CCCCC1 | -0.446%
COc1cccc2c1cc1c(=O)n(CC(=O)N3CCN(C4CCCCC4)CC3)nc(C)n12 | 4.84%
Cc1nc2nc(C)c(CCC(=O)N3CCC(Cc4ccccc4)CC3)c(C)n2n1 | -4.1%
N#C/C(=C/c1ccc(Cl)cc1)C(=O)Nc1ccc(Cl)cc1 | -2.2%
CCOc1ccc(NC(=O)CN(c2ccc(C)cc2C)S(C)(=O)=O)cc1 | -3.78%
